Sequences with one replicate were seen in a single cluster, so their values are uncertain.
system: ATP; assay: switch fluorescence ratio, 500 uM ATP over buffer (Cy3 cluster intensity, sum of 5 cycles each) (fold (ratio)); higher = stronger signal-on switching upon ATP binding; sequences stand for … in TCGTCGGCAGCGTCAGATGTGTATAAGAGACAGTTTTTTTTTTTTTTTTTTTTTTTTT…TC; settings: aptamer strand: ATP DNA aptamer (quencher-CACCTGGGGGAGTATTGCGGAGGAAGG + anchor), 100 nM annealed; ATP concentration: 500 uM; one replicate
Outline: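 After annealing to 100 nM quencher-labelled ATP aptamer, Cy3-labelled switching-strand clusters on a modified Illumina MiSeq flow-cell were imaged in selection buffer. A second image followed after 15 min with 500 uM ATP at 22 °C, and five such buffer/ATP cycles were done, each separated by NaOH stripping and re-annealing. The fluorescence ratio, averaged per switch-domain sequence, is summed target-cycle over summed buffer-cycle Cy3 intensity per cluster, with clusters outside 100-1000 RFU excluded.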
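Also: ATP exposure 15 min at 22 °C before imaging.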

Sequence	switch fluorescence ratio
ACTATTTATG	1.02
ACTCAATGGT	1.03
ACTCAGGGCC	0.998
ACTCATAGCC	1.07
ACTCATAGCT	1.05
ACTCCATGGG	0.985
ACTCCCTTTT	1.23
ACTCGACTAG	1.01
ACTCGCGATG	1.19
ACTCGCTCGT	0.964
ACTCGGATCT	0.99
ACTCGTACGT	1.08
ACTCGTATAG	0.966
ACTCTACATC	1.23
ACTCTAGGTT	1.03
ACTCTCGTCG	0.999
ACTCTGATCA	1.06
ACTCTGGGTA	0.981
ACTCTTCTAG	1.05
ACTGAAAAAA	1.17
ACTGAGGGAA	1.02
ACTGAGTCCC	1.14
ACTGAGTGAC	1.07
ACTGAGTT	1.04
ACTGATAATG	1.04
ACTGATAGTG	1.01

Sequence	switch fluorescence ratio
ACTGATGAAC	0.991
ACTGATGTGT	0.961
ACTGATTGGA	1.07
ACTGCACATA	1.42
ACTGCCGTGG	1.02
ACTGGACAG	1
ACTGGATGT	1.01
ACTGGCAGAA	1.02
ACTGGTAGCC	1.02
ACTGGTGG	0.938
ACTGGTGTGT	0.998
ACTGGTTATG	1.01
ACTGGTTCAT	1.03
ACTGTAATGG	1.2
ACTGTACTAT	1.45
ACTGTAGATC	1.06
ACTGTAGCGG	1.06
ACTGTAGGCT	1.09
ACTGTATGA	1.16
ACTGTCAAAT	1.01
ACTGTCATCT	1.01
ACTGTGAAGA	1.03
ACTGTGAGGT	0.996
ACTGTGAGTG	1.06
ACTGTGCCAT	1.03
ACTGTTAACA	1.1

Sequence	switch fluorescence ratio
ACTGTTCTCT	0.995
ACTGTTTCCT	1.01
ACTTAAAACG	1.15
ACTTAAAGCG	0.989
ACTTAATCAT	0.992
ACTTACATCT	1.21
ACTTACCTTT	1.13
ACTTACGTGT	1.34
ACTTACTTGA	1.11
ACTTAGACTC	1.08
ACTTATGCGG	0.979
ACTTATTCCC	1.38
ACTTCACACT	1.42
ACTTCATTAG	1.01
ACTTCCATTG	1.08
ACTTCGCGCG	1.06
ACTTCGTTTC	1.09
ACTTCTGCGT	1.01
ACTTGCATCA	1.05
ACTTGTGACC	0.96
ACTTGTGGA	0.994
ACTTGTTTCA	1.01
ACTTTATTT	1
ACTTTCGGAT	0.943
ACTTTCGTAT	0.962
ACTTTGCCTC	1.03

Sequence	switch fluorescence ratio
ACTTTGTTAT	1.02
ACTTTTATCA	0.955
ACTTTTCTG	1.02
ACTTTTTCCC	1.05
AGAAACATAT	1
AGAAACTAC	1.04
AGAAAGAATA	0.981
AGAAAGCATC	0.982
AGAAAGTTTC	0.979
AGAAATACC	1.11
AGAAATGAAG	0.974
AGAAATGGGC	1.07
AGAAATTAGG	0.991
AGAAATTTT	0.972
AGAACACGTA	1.13
AGAACATTGA	0.952
AGAACATTT	1.02
AGAACCACTT	1.02
AGAACGTCCC	1.11
AGAACTAATG	1.04
AGAACTGCAG	0.984
AGAAGAACAG	1.04
AGAAGAGACT	1.02
